Experimental data reported in PubChem BioAssay AID2675 (National Center for Advancing Translational Sciences (NCATS), 2010).
Out of some 280,000 compounds screened, about 100 (0.036%) were called active. The shares of active, inactive and inconclusive entries below differ from those in the screen. Calls follow the shape of the dose curve; as a rule, active = well fitted inhibition curve with a large enough effect in the signal ratio, with a control signal flat (not every such curve was filed as active); inconclusive = small, poorly fitted or top-dose-only effect, or effect the other way, or a change in a side signal; inactive = no such curve, though single readings can be large or run the other way; the % refers to the signal ratio. Potencies of inconclusive entries are doubtful fits and often do not repeat. A note “side channel” means that the fit belongs to a control or component signal, not to the main read-out.

These compounds were tested against Muscleblind-like protein 1 (Homo sapiens) (UniProt Q9NR56) (assay: qHTS Assay for Inhibitors of MBNL1-poly(CUG) RNA binding). Conditions: TR-FRET MBNL1-His/biotin-(CUG)12 binding, 665/545 ratio; series mostly up to 57.5 µM.
UniProt Q9NR56, sequence (Q9NR56 whole entry, looked up): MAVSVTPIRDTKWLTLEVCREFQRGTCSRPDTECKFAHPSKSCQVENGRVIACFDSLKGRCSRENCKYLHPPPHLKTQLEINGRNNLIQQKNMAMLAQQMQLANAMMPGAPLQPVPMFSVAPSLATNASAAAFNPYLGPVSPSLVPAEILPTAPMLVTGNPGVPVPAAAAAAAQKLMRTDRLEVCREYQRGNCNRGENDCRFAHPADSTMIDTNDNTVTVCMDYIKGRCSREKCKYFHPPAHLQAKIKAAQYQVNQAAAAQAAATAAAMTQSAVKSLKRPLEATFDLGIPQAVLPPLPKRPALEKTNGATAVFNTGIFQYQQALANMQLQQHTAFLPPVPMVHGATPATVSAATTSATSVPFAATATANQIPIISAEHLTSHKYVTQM
Outline: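 Inhibition of protein-RNA binding appears as loss of TR-FRET between terbium anti-His antibody on MBNL1-His and streptavidin-XL665 on biotin-(CUG)12. Activity is normalized to buffer-only and uninhibited-complex controls.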
Potency is read from the fitted curve at half-maximal effect; tags tell the direction and shape of the fitted curve or compound fluorescence and quenching.

Row | SMILES | Potency
1 | COC(=O)c1cccc(NC(=O)c2ccc[n+]([O-])c2)c1 | active: 39.8 µM
2 | CCOc1cccc2cc(-c3cn4cc(C)ccc4n3)c(=O)oc12 | inactive
3 | C=CCN1C(c2cccc(C(F)(F)F)c2)=CS/C1=C(/C#N)c1nnc(N2CCOCC2)n1-c1ccccc1 | inconclusive: 25.1 µM [quencher, side channel, single point]
4 | CN1C(=O)/C(=C/C=C2\SCCN2C)N(C)C1=S | inconclusive: 3.98 µM [quencher, side channel, full curve]
5 | Cc1noc(/C=C/c2cccs2)c1S(=O)(=O)N1CCC(C(=O)NCCCN2CCCC(C)C2)CC1 (stereo not given) | inconclusive: 25.1 µM [quencher, partial curve]
6 | Nc1c2c(nc3ccccc13)N(c1ccccc1)CC2 | inconclusive: 20 µM [quencher, side channel, single point]
7 | CCCCN(CCCC)CCCNC(=O)c1ccc2nc(-c3ccccc3NC(C)=O)c(=O)[nH]c2c1 | inconclusive: 28.2 µM [quencher, side channel, partial curve]
8 | CCN(CC)C(=O)CSc1nc2c(sc(=S)n2-c2ccccc2)c(=O)n1Cc1ccco1 | inactive
9 | Cc1cc(/C=N/NC(=O)c2ccc(O)cc2)c(C)n1C1CC1 | inactive
10 | CC(=O)N1N=C(C)CC1c1ccc(OCc2ccccc2)cc1 (stereo not given) | inconclusive: 0.112 µM [fluorescent, side channel, full curve]
11 | O=C(NC1C2CC3CC(C2)CC1C3)c1ccc(Br)o1 (stereo not given) | inactive
12 | COc1cc(OC)c(OC)cc1/C=N/NC(=O)c1cnccn1 | inconclusive: 31.6 µM [quencher, side channel, partial curve]
13 | C=C(C)C1CC=C(C)/C(=N/NC(=O)c2cccc([N+](=O)[O-])c2)C1 (stereo not given) | inconclusive: 20 µM [quencher, side channel, single point]
14 | CCn1cc(C(=O)NCc2ccccc2OC)c(=O)c2cc(S(=O)(=O)N(C)C)ccc21 | inconclusive: 8.91 µM [quencher, side channel, single point]
15 | c1ccc(NC2=Nc3cccc4cccc2c34)cc1 | inconclusive: 31.6 µM [quencher, side channel, single point]
16 | CCn1cc(Cl)c(C(=O)N2N=C(c3ccc4ccccc4c3)CC2c2ccccc2O)n1 (stereo not given) | inconclusive: 0.126 µM [inhibitor, full curve, poor fit]
17 | CC(=O)Oc1ccc2cc(-c3nc4ccccc4n3C)c(=O)oc2c1 | inconclusive: 17.8 µM [quencher, side channel, single point]
18 | NC(=S)Nc1nc2ccccc2[nH]c1=O | inconclusive: 14.1 µM [quencher, side channel, partial curve]
19 | Cc1cc(C)nc(/N=C(\N)Nc2cccc(OCc3ccccc3)c2)n1 | inactive
20 | COc1ccc2nc(SCC(=O)NC(C)C)[nH]c2c1 | inactive
21 | COc1ccc(C(=O)N/N=c2\oc3ccccc3cc2C(N)=O)cc1 | inconclusive: 15.8 µM [quencher, side channel, partial curve]
22 | COc1ccc(C(=O)Nc2cccc(-c3ccc4nncn4n3)c2)cc1 | inconclusive: 11.2 µM [quencher, side channel, partial curve]

Row | SMILES | Potency
23 | CCOC(=O)Nc1ccc(C(=O)c2ccncc2)cc1 | inconclusive: 31.6 µM [quencher, side channel, single point]
24 | COn1c2c(c3c4nonc4ccc31)CCCC2 | inconclusive: 15.8 µM [quencher, side channel, single point]
25 | CNC(=S)N/N=C(\C)c1ccc2c(c1)OCCO2 | inactive
26 | COc1ccc(N2C(=O)c3ccc(NC(C)=O)cc3C2=O)cc1 | inconclusive: 7.94 µM [quencher, side channel, partial curve]
27 | CC(C)N(C)C1CCN(S(=O)(=O)c2ccc(-c3ccc(=O)[nH]n3)s2)CC1 | inconclusive: 8.91 µM [quencher, side channel, partial curve]
28 | CC(=O)Nc1ccc(C(=O)OCC(=O)c2cccc([N+](=O)[O-])c2)cc1 | inconclusive: 0.891 µM [quencher, side channel, full curve]
29 | COc1ccccc1NCC(=O)N/N=C/c1sccc1C | inconclusive: 44.7 µM [quencher, side channel, partial curve, poor fit]
30 | CCc1c(C)sc(NC(=O)CSc2nc3c(c(C(F)(F)F)n2)CCc2ccccc2-3)c1C#N | inconclusive: 8.91 µM [fluorescent, side channel, full curve]
31 | Cn1cccc1CC(=O)N/N=C/C=C/c1ccco1 | inconclusive: 28.2 µM [quencher, side channel, single point]
32 | O=C(CNS(=O)(=O)c1ccccc1)N/N=C/c1ccccc1[N+](=O)[O-] | inconclusive: 28.2 µM [quencher, side channel, partial curve]
33 | CCn1c(C)nc2cc(C(=O)N/N=C/c3cccc(OC)c3O)ccc21 | inconclusive: 22.4 µM [quencher, side channel, single point]
34 | O=C(CS(=O)(=O)c1ccccc1)c1cc2ccccc2oc1=O | inconclusive: 20 µM [quencher, side channel, partial curve]
35 | CC1CCN(C(=O)CSc2nnc(-c3ccc(S(=O)(=O)N4CCOCC4)cc3)n2C)CC1 | inactive
36 | Cc1nn(-c2ccccc2)c(N)c1N=Nc1ccccc1 | inconclusive: 10 µM [quencher, side channel, partial curve]
37 | COc1cccc2cc(-c3csc(CCn4nc(C)cc4C)n3)c(=O)oc12 | inconclusive: 20 µM [quencher, side channel, partial curve]
38 | CCN(Cc1ccncc1)C(=O)CSc1ccc2ccccc2c1 | inconclusive: 35.5 µM [quencher, side channel, single point]
39 | O=C(CC1CCCC1)Nc1nc2ccccc2[nH]1 | inactive
40 | Cc1ccc(N=Nc2c(N)[nH]n3c(=O)cc(C)nc23)cc1 | inconclusive: 12.6 µM [quencher, side channel, partial curve]
41 | COc1ccccc1N(CC(O)CN1CCC(C)CC1)S(=O)(=O)c1ccccc1 (stereo not given) | inactive
42 | Oc1[nH]c2ccccc2c1C=Nc1ccc2c(c1)OCCO2 | inconclusive: 25.1 µM [quencher, side channel, partial curve]
43 | CC(C)OCCCNC(=O)c1sc(=S)n(C)c1N | inconclusive: 25.1 µM [quencher, side channel, partial curve]
44 | O=C1OC(c2cccs2)=N/C1=C/c1ccc(-c2cccc(C(=O)O)c2)o1 | inconclusive: 39.8 µM [quencher, side channel, partial curve]

Row | SMILES | Potency
45 | O=C(CCc1nc2ccccc2s1)Nc1cccnc1 | inactive
46 | CC(C)Cn1c(-c2ccccc2F)n[nH]c1=S | inactive
47 | COc1ccc(S(=O)(=O)N2CCC[C@H]2C(=O)NC2=NCCS2)cc1 | inactive
48 | c1ccc2c(c1)CCN(c1nc3ccccc3n3cnnc13)C2 | inactive
49 | CCCN1C(=O)/C(=C\c2ccncc2)SC1=Nc1ccccc1 | inactive
50 | CCc1ccc(N=C2NC(=O)/C(=C/c3ccc(OCC(=O)O)c(OC)c3)S2)cc1 | inconclusive: 17.8 µM [quencher, side channel, partial curve]
51 | CN(C)/C=N/c1c(C#N)cnn1-c1ncnc2sc(-c3ccccc3)cc12 | inconclusive: 28.2 µM [quencher, side channel, partial curve]
52 | CCn1c(SCC(=O)N/N=C/C=C/c2ccco2)nc2ccccc21 | inconclusive: 0.199 µM [quencher, side channel, full curve, poor fit]
53 | CCS(=O)(=O)Nc1cccc(C2=NN(S(C)(=O)=O)C(c3ccccc3)C2)c1 (stereo not given) | inactive
54 | COC(=O)c1ccc(/C=C2\SC(=S)N(CCCC(=O)NCCCN3CCOCC3)C2=O)cc1 | inconclusive: 14.1 µM [quencher, side channel, partial curve]
55 | COc1ccc(OCc2nnc(SCC(=O)N3CCCc4ccccc43)n2-c2ccc(C)cc2)cc1 | inactive
56 | COc1cc(/C=N/NC(=S)Nc2cccc(S(=O)(=O)N(C)C)c2)cc(OC)c1O | inconclusive: 20 µM [quencher, side channel, single point]
57 | O=C(NCCCO)c1ccc2nc(-c3ccco3)c(-c3ccco3)nc2c1 | inconclusive: 12.6 µM [quencher, side channel, partial curve]
58 | O=C1CC(c2ccc(Cl)cc2)CC(O)=C1C=NCCO (stereo not given) | inactive
59 | O=C(N/N=C/c1c(O)n(-c2ccccc2Cl)c(=O)c2ccccc12)C1COc2ccccc2O1 (stereo not given) | inactive
60 | C/C=C/C=C\C(=O)Nc1cccc(C2=NOC3(C2)C[C@@H](C(N)=O)N(C(=O)c2cc([N+](=O)[O-])cc([N+](=O)[O-])c2C)C3)c1 (stereo not given in full) | inconclusive: 7.94 µM [quencher, full curve]
61 | Cc1ccc(CN2CCN(Cc3cccc4c3OCO4)CC2CCO)cc1 (stereo not given) | inactive
62 | COc1ccc(N=Nc2c(C)[nH][nH]c2=O)cc1 | inconclusive: 7.08 µM [quencher, side channel, partial curve]
63 | Cc1cccc(Nc2nnc(SCC3CCCCO3)s2)c1 (stereo not given) | inactive
64 | CCOC(=O)/C(C#N)=C\C=C1C=CN(C)C=C1 | inconclusive: 17.8 µM [quencher, side channel, partial curve]
65 | CN(C)/N=C/c1ccc(P(c2ccc(/C=N/N(C)C)o2)c2ccc(/C=N/N(C)C)o2)o1 | inconclusive: 22.4 µM [quencher, side channel, single point]
